Assay results taken from ChEMBL document CHEMBL4888484, “Replenishing the malaria drug discovery pipeline: Screening and hit evaluation of the MMV Hit Generation Library 1 (HGL1) against asexual blood stage Plasmodium falciparum ,using a nano luciferase reporter read-out” (2022).
The whole screen tested about 150,000 compounds, of which about 540 (0.36%) showed an effect of 50% or more. The list shows a part of the results.

System: Plasmodium falciparum
Assay: Primary screen in NF54 nanoGlo assay, in single point, at 2uM, 72h; a lower Z score goes with more inhibition
Assay type: functional, Erythrocyte
Conditions: timepoint 72 hour

Point of comparison: `C[C@H](OCC1CC1)C(=O)NCCNC(=O)Cc1ccccc1`, “% Inhibition” value 10%. Against it:
- COC1=NCCN(C(=O)OC(C)(C)C)C(C)(C)C1 — lower, -8%
- O=C(NCCCN1CCOC1=O)c1ccon1 — lower, 1%
- CC(=O)N1C[C@H]2CC[C@@H](C1)N(C(=O)c1cc(C)nc3c(Cl)cccc13)C2 — lower, -1%
- COCCN1CCN(Cc2nc(C)c3ccccc3n2)CC1 — lower, -1%
- CC(C)(C)c1ccc(S(=O)(=O)N2CCC(C(=O)O[C@H]3CCOC3=O)CC2)cc1 — lower, 2%
- CC(C)c1nnsc1C(=O)N1C[C@@H](CN2CCN(C)CC2)[C@@H](CO)C1 — lower, 2%
- CCn1cc(CN(Cc2ccoc2)CC(C)C)cn1 — lower, 9%
- CCc1c(C)nc(C)nc1-c1ccc(C(=O)N2CCC(C#N)CC2)cc1 — lower, -1%
- C[C@@H]1N[C@@]2(C(=O)Nc3ccccc32)[C@@H]2C(=O)N(c3cccc(Cl)c3)C(=O)[C@H]12 — lower, -6%
- Cc1ncsc1CCC(=O)N1CC[C@@](O)(c2ccccc2)[C@H]2CCCC[C@H]21 — lower, 4%
- CC(C)c1c[nH]nc1NC(=O)[C@H](C)c1ccsc1 — lower, -7%
- CC(Nc1ccc(C#N)cn1)C(C)n1cccn1 (stereo not drawn) — lower, -9%
- COc1ccc(C(=O)N2CCN(Cc3c(-c4ccc(F)cc4)nc4ccc(-c5cccc(C)c5)cn34)CC2)cc1 — lower, -18%
- CCc1c(C)nn(C)c1NC(=O)c1cc(C)nn1CC — lower, -10%
- COc1cccc(NC(=O)c2[nH]c3cc(C)sc3c2CN2CCCC2)c1 — lower, -13%
- CC1(C)C2CN(C(=O)NC3CCN(c4ccc(C#N)cc4)CC3)CC21 (stereo not drawn) — lower, -17%
- Cc1noc(C)c1CN(C(C)C)C1CC1 — lower, -14%
- O=C(Nc1ccc(Oc2ccc(Br)c3ccccc23)c(Cl)c1)c1cc(Cl)ccc1O — lower, -3%
- O=C1C[C@H](c2cccnc2N2CCOCC2)c2c(-c3ccccn3)n[nH]c2N1 — lower, -1%
- CNC(=O)c1noc(CN2CCC3(CCC(=O)N(CCOC)C3)CC2)n1 — lower, -11%
- Cc1ccc(-c2ccc(C(N)=O)s2)c(-n2cccn2)c1 — lower, -13%
- COc1ccc(C[C@@]2(CCC(=O)N(C)CCc3cn[nH]c3)CCC(=O)N2)c(F)c1 — higher, 11%
- CCC(=O)N1CC2(C)CN(C(=O)CC)CC(c3ccccc3)(C1)C2=O — lower, -12%
- CCN1C(=O)CC(C(=O)O)C1c1cccc(C)c1 (stereo not drawn) — lower, 5%
- Cc1cc(C(=O)NCCCn2cccn2)on1 — lower, -4%
- C=CCc1cc(CN(C)Cc2nncn2C(C)C)ccc1OCC — lower, 3%
- COCCN(Cc1cc2ccc(OC)cc2nc1N(C)C)C(=O)c1ccccc1C(F)(F)F — lower, 2%
- CC(C)=CCC[C@@]1(C)CCC(=O)N(CCn2c(C)cc(C)nc2=O)C1 — lower, -24%
- O=C(Nc1nc(-c2ccc(Cl)cc2)cc(-c2ccc(Cl)cc2)n1)c1cccs1 — lower, -10%
- Nc1nc(NC2(c3ccccc3Cl)CC2)cc([C@H]2CCOC2)n1 — lower, 6%
- COC(=O)CN1CCC(NC(=O)[C@@]23CC[C@@](C)(OC2=O)C3(C)C)CC1 — lower, 5%
- Cc1cccc(NC(=O)N[C@H]2CCOC(C)(C)C2)n1 — lower, 3%
- CCCc1noc(COc2cccnc2C#N)n1 — lower, -8%
- Cn1cc(-c2cc(F)ccc2NC(=O)N2CCC(n3ccnn3)CC2)cn1 — lower, -13%
- CN(C[C@H](O)C(F)(F)F)S(=O)(=O)C1CC1 — lower, 1%
- Cc1ccc([C@@H](NCC(=O)Nc2ccc3c(c2)OCO3)c2ccccc2)cc1C — lower, -8%
- CCc1nc2ccc(Cl)cn2c1C(=O)N1CCOCC12CCC2 — lower, 5%
- c1ccc(-n2nnc(-c3noc(-c4cccs4)n3)c2-c2ccncc2)cc1 — lower, -19%
- N#Cc1cccc(CN2CCN(c3ccncc3)C[C@@H](O)C2)c1 — lower, -8%
- N#CC1(CNC(=O)c2cccnn2)CCCCC1 — lower, -6%
- COc1cccc(-c2c[nH]c([C@@H]3CCCN3C(=O)c3cnn(C)c3)n2)c1 — lower, -7%
- C[C@@H](C(=O)NCCc1cc[nH]n1)N1CCN(C)CC1 — lower, -2%
- COc1ccc(C(=O)Cn2c(N3CCCCC3)nc3c2c(=O)n(C)c(=O)n3C)cc1OC — lower, -5%
- C[C@H](NC(=O)C1CC=CC1)C(C)(F)F — lower, 3%
- OC1CCN(Cc2ccc(CNc3ccc(F)cn3)cc2)CC1 — lower, -6%
- Cn1nccc1CCC(=O)N1CCCC1CC1CC2CCC1C2 (stereo not drawn) — lower, -12%
- COc1ccc(Cc2n[nH]c(CCNC(C)=O)n2)cc1OC — lower, 4%
- O=C(Cn1ccnn1)N(Cc1cccc(Br)c1)CC1CC1 — lower, -9%
- COc1ccc2[nH]c3c(c2c1)CCN(C)C31CCN(C(=O)c2ccoc2)CC1 — lower, 9%
- CCCCc1noc([C@H](C)NCCn2cc(C)cn2)n1 — lower, -14%
- OC[C@H](Cc1ccc(F)cc1)NCc1ccc(Cl)cc1-n1cncn1 — lower, -4%
- CC1(C)COc2c(CN3CCC[C@H]3c3nc(-c4ccccn4)no3)cc(Cl)cc21 — lower, -13%
- Cn1cccc1[C@@H](C#N)N1CCCCCC1 — lower, -15%

Point of comparison: `Cc1ccc([C@@H](NCC(=O)Nc2ccc3c(c2)OCO3)c2ccccc2)cc1C`, Z score 1.12. Against it:
- COC1=NCCN(C(=O)OC(C)(C)C)C(C)(C)C1 — lower, 0.75
- O=C(NCCCN1CCOC1=O)c1ccon1 — lower, -0.2
- CC(=O)N1C[C@H]2CC[C@@H](C1)N(C(=O)c1cc(C)nc3c(Cl)cccc13)C2 — lower, 0.19
- COCCN1CCN(Cc2nc(C)c3ccccc3n2)CC1 — lower, 0.21
- CC(C)(C)c1ccc(S(=O)(=O)N2CCC(C(=O)O[C@H]3CCOC3=O)CC2)cc1 — lower, -0.34
- CC(C)c1nnsc1C(=O)N1C[C@@H](CN2CCN(C)CC2)[C@@H](CO)C1 — lower, -0.19
- CCn1cc(CN(Cc2ccoc2)CC(C)C)cn1 — lower, -1.68
- CCc1c(C)nc(C)nc1-c1ccc(C(=O)N2CCC(C#N)CC2)cc1 — lower, 0.18
- C[C@@H]1N[C@@]2(C(=O)Nc3ccccc32)[C@@H]2C(=O)N(c3cccc(Cl)c3)C(=O)[C@H]12 — lower, 0.83
- Cc1ncsc1CCC(=O)N1CC[C@@](O)(c2ccccc2)[C@H]2CCCC[C@H]21 — lower, -0.94
- CC(C)c1c[nH]nc1NC(=O)[C@H](C)c1ccsc1 — higher, 1.28
- CC(Nc1ccc(C#N)cn1)C(C)n1cccn1 (stereo not drawn) — higher, 1.68
- COc1ccc(C(=O)N2CCN(Cc3c(-c4ccc(F)cc4)nc4ccc(-c5cccc(C)c5)cn34)CC2)cc1 — higher, 2.05
- CCc1c(C)nn(C)c1NC(=O)c1cc(C)nn1CC — higher, 1.15
- COc1cccc(NC(=O)c2[nH]c3cc(C)sc3c2CN2CCCC2)c1 — higher, 1.27
- CC1(C)C2CN(C(=O)NC3CCN(c4ccc(C#N)cc4)CC3)CC21 (stereo not drawn) — higher, 2.57
- Cc1noc(C)c1CN(C(C)C)C1CC1 — higher, 2.23
- O=C(Nc1ccc(Oc2ccc(Br)c3ccccc23)c(Cl)c1)c1cc(Cl)ccc1O — lower, 0.42
- O=C1C[C@H](c2cccnc2N2CCOCC2)c2c(-c3ccccn3)n[nH]c2N1 — lower, 0.27
- CNC(=O)c1noc(CN2CCC3(CCC(=O)N(CCOC)C3)CC2)n1 — higher, 1.81
- Cc1ccc(-c2ccc(C(N)=O)s2)c(-n2cccn2)c1 — higher, 2.44
- COc1ccc(C[C@@]2(CCC(=O)N(C)CCc3cn[nH]c3)CCC(=O)N2)c(F)c1 — lower, -1.46
- CCC(=O)N1CC2(C)CN(C(=O)CC)CC(c3ccccc3)(C1)C2=O — lower, 1.09
- CCN1C(=O)CC(C(=O)O)C1c1cccc(C)c1 (stereo not drawn) — lower, -0.45
- Cc1cc(C(=O)NCCCn2cccn2)on1 — lower, 0.75
- C[C@H](OCC1CC1)C(=O)NCCNC(=O)Cc1ccccc1 — lower, -1.51
- C=CCc1cc(CN(C)Cc2nncn2C(C)C)ccc1OCC — lower, -0.44
- COCCN(Cc1cc2ccc(OC)cc2nc1N(C)C)C(=O)c1ccccc1C(F)(F)F — lower, -0.3
- CC(C)=CCC[C@@]1(C)CCC(=O)N(CCn2c(C)cc(C)nc2=O)C1 — higher, 2.42
- O=C(Nc1nc(-c2ccc(Cl)cc2)cc(-c2ccc(Cl)cc2)n1)c1cccs1 — higher, 1.94
- Nc1nc(NC2(c3ccccc3Cl)CC2)cc([C@H]2CCOC2)n1 — lower, -0.74
- COC(=O)CN1CCC(NC(=O)[C@@]23CC[C@@](C)(OC2=O)C3(C)C)CC1 — lower, -0.69
- Cc1cccc(NC(=O)N[C@H]2CCOC(C)(C)C2)n1 — lower, -0.3
- CCCc1noc(COc2cccnc2C#N)n1 — higher, 1.42
- Cn1cc(-c2cc(F)ccc2NC(=O)N2CCC(n3ccnn3)CC2)cn1 — higher, 2.49
- CN(C[C@H](O)C(F)(F)F)S(=O)(=O)C1CC1 — lower, -0.1
- CCc1nc2ccc(Cl)cn2c1C(=O)N1CCOCC12CCC2 — lower, -0.63
- c1ccc(-n2nnc(-c3noc(-c4cccs4)n3)c2-c2ccncc2)cc1 — higher, 3.7
- N#Cc1cccc(CN2CCN(c3ccncc3)C[C@@H](O)C2)c1 — lower, 0.74
- N#CC1(CNC(=O)c2cccnn2)CCCCC1 — lower, 0.7
- COc1cccc(-c2c[nH]c([C@@H]3CCCN3C(=O)c3cnn(C)c3)n2)c1 — lower, 0.96
- C[C@@H](C(=O)NCCc1cc[nH]n1)N1CCN(C)CC1 — lower, 0.36
- COc1ccc(C(=O)Cn2c(N3CCCCC3)nc3c2c(=O)n(C)c(=O)n3C)cc1OC — lower, 0.53
- C[C@H](NC(=O)C1CC=CC1)C(C)(F)F — lower, -0.68
- OC1CCN(Cc2ccc(CNc3ccc(F)cn3)cc2)CC1 — lower, 0.93
- Cn1nccc1CCC(=O)N1CCCC1CC1CC2CCC1C2 (stereo not drawn) — higher, 1.21
- COc1ccc(Cc2n[nH]c(CCNC(C)=O)n2)cc1OC — lower, -0.41
- O=C(Cn1ccnn1)N(Cc1cccc(Br)c1)CC1CC1 — higher, 1.58
- COc1ccc2[nH]c3c(c2c1)CCN(C)C31CCN(C(=O)c2ccoc2)CC1 — lower, -1.69
- CCCCc1noc([C@H](C)NCCn2cc(C)cn2)n1 — higher, 1.57
- OC[C@H](Cc1ccc(F)cc1)NCc1ccc(Cl)cc1-n1cncn1 — lower, 0.44
- CC1(C)COc2c(CN3CCC[C@H]3c3nc(-c4ccccn4)no3)cc(Cl)cc21 — higher, 2.47
- Cn1cccc1[C@@H](C#N)N1CCCCCC1 — higher, 1.72
